# From PubChem BioAssay AID1508623 (National Center for Advancing Translational Sciences (NCATS), 2021)
# In all, about 48,000 compounds went through this assay and about 450 (0.94%) were called active. Roughly 19% stayed inconclusive and do not appear here. The call rests on the fitted dose curve; in most records, active means well fitted inhibition curve with a large enough effect; inconclusive means small, poorly fitted or top-dose-only effect; inactive means no such curve, though single readings can be large or run the other way. This is one part of the list.
# Assay: Primary qHTS for Identification of Small Molecule Inhibitors of Huntingtin Promoter Activity; further: nearly all actives have a fitted effect of over 50% in size
# Details: HEK293 HTT promoter firefly luciferase reporter (activity 0% = vehicle and -100% = no light), 24 h; series mostly up to 57.5 µM; activity change, negative = inhibition: at the top concentration
# How it was run: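 Firefly luciferase signal from promoter-reporter HEK293 cells was scaled between vehicle (0%) and zero RLU (-100%). Compounds were tested at final concentrations of up to 57.5 uM over 24 h at 37 degrees C. PTC124 at 50 uM final served as control inhibitor.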
# Potency means the concentration at half of the fitted maximal effect.
SMILES,"activity change, negative = inhibition",Potency
Fc1ccccc1Nc1ncnc2c1nc1n2CCCCC1,inactive: 22.5%,
COc1ccc(C2CC(=O)Oc3c2c(=O)n(C)c2ccccc32)c(OC)c1OC (stereo not drawn),inactive: -16.7%,
CCOc1ccc(NC(=O)CS(=O)(=O)Cc2nc(-c3ccc(C)cc3)oc2C)cc1,inactive: -21.8%,
CC(=O)OC(C)C[N+](C)(C)C (stereo not drawn),inactive: 2%,
COc1ccc(OC)c2sc(N(CCCN(C)C)C(=O)c3ccco3)nc12,inactive: -13%,
CCCCOc1ccc(CC(=O)NO)cc1,inactive,
Cc1ccccc1CNC(=O)CCSCc1cnn(-c2ccccc2)c1-n1cccc1,inactive: -30%,
O=c1c2oc3ccccc3c2ncn1Cc1ccc(Br)cc1,inactive: -3.72%,
COc1ccc(C2c3c(oc4ccccc4c3=O)C(=O)N2c2nc(C)c(C)s2)cc1 (stereo not drawn),inactive: -16.6% [at 11.5 µM],
Cc1nc2nc(C)c(CCC(=O)NCCc3ccccc3)c(C)n2n1,inactive: 3.47%,
CCOc1ccc(C(NC(=O)c2cc(OC)c(OC)c(OC)c2)c2cc(Cl)c3cccnc3c2O)cc1 (stereo not drawn),,active: 3.55 µM
Cc1ccc2nc(CN3CCN(S(=O)(=O)c4ccccc4)CC3)oc2c1,inactive: 0%,
CC(C)Oc1cccc(C(=O)Nc2ccc3oc(-c4ccccc4)nc3c2)c1,inactive: -25.5%,
CCc1ccc(NC(=O)CSc2nc3ccccc3c(=O)n2CCC(=O)NC2CCCCC2)cc1,inactive: -16.6%,
CCC(Sc1nc2cc3c(cc2c(=O)n1CCCC(=O)NCc1ccc2c(c1)OCO2)OCO3)C(=O)NCCCOC (stereo not drawn),inactive: -14.8%,
CCC(=O)N1c2ccc(S(=O)(=O)N3CCCCCC3)cc2CC1C (stereo not drawn),inactive: -8.68%,
Nc1c(-c2nc(-c3ccccc3Cl)no2)nnn1-c1ccccc1F,inactive: 89.1%,
COc1ccc(NC(=O)C(NS(=O)(=O)c2cccc3nsnc23)c2ccccc2)cc1 (stereo not drawn),inactive: -13.7%,
CCOc1cc(-c2nnc(SCC(=O)NCCCOC)nc2-c2ccc(OC)c(OCC)c2)ccc1OC,inactive: -2.51%,
CCC(=O)Nc1nnc(S(=O)(=O)N2CCCCCC2)s1,inactive: -7.64%,
CCCCSc1nnc2c(n1)OC(c1ccc(C)s1)Nc1ccccc1-2 (stereo not drawn),inactive: 22.4%,

SMILES,"activity change, negative = inhibition",Potency
Cc1ccc(N2CCN(S(=O)(=O)c3cc(Br)cc4c3N(C(=O)C3CC3)CC4)CC2C)cc1 (stereo not drawn),inactive: -1.68%,
CCS(=O)(=O)N1CC(=O)N(c2ccc(C)c(C)c2)C(C)(C(=O)NC2CCCCCC2)C1 (stereo not drawn),inactive: 3.7%,
CCCN(C(=O)c1cn(CC(C)C)c(=O)c2cc(OC)c(OC)cc12)c1cccc(C)c1,inactive: -22.9%,
COc1ccc(N2CC(NC(=O)Cc3cccs3)CC2=O)cc1OC (stereo not drawn),inactive: -5.5%,
CCCCOC(=O)c1ccc(NC(=O)/C(C#N)=C/c2ccc(C)o2)cc1,inactive: -37.6% [at 11.5 µM],
CCCCNS(=O)(=O)c1ccc2nc(-c3cccnc3)cc(C(=O)NCCCOCC)c2c1,inactive: 3.12%,
Cc1ccc(NC(=O)COCc2cc(-c3cccs3)on2)cc1Cl,inactive: -7.51%,
C[C@H]1c2cccc(O)c2C(O)=C2C(=O)[C@]3(O)C(O)=C(C(N)=O)C(=O)[C@@H](N(C)C)[C@@H]3[C@@H](O)[C@@H]21,inactive,
CCOc1ccccc1CNC(=O)CCn1cccn1,inactive: 7.2%,
Cc1[nH]c2ccccc2c1C(=O)C(=O)NC1CC(=O)N(c2ccccc2)C1 (stereo not drawn),inactive: -22.7%,
COC(=O)c1ccc(NC(=O)CN(c2cccc(C(F)(F)F)c2)S(C)(=O)=O)cc1,inactive: -7.24%,
Cc1cccc(-n2c(SCC(=O)Nc3ccccc3C)nc3c(oc4ccccc43)c2=O)c1,inactive: -22.8%,
CCc1ccccc1N1C(=O)N(C)c2ccccc2S1(=O)=O,inactive: -21.7%,
CCCN(CCC)CCCNC(=O)C1CCN(S(=O)(=O)c2cccc3nsnc23)CC1,inactive: -5.01%,
CCOc1ccc(S(=O)(=O)N2CCN(c3ccc(C)cc3C)CC2)c2ccccc12,inactive: -14.9%,
CCCCCCCCCCCCCCCCO,inactive: -4.88%,
O=C1COc2ccc(-c3cc(-c4ccc(F)cc4)c4c(n3)-c3ccccc3OC4)cc2N1,inactive: -9.47%,
CCN(C(=O)c1ccc2c(=O)n3c(nc2c1)CCCCC3)c1cc(C)ccc1C,inactive: -19.6%,
CCCOc1cccc(C2c3c(oc4cc(C)c(C)cc4c3=O)C(=O)N2CCCN2CCOCC2)c1 (stereo not drawn),inactive: -17.2%,
CCC(=O)N1CCc2cc(S(=O)(=O)NC(C(=O)NCCc3ccc(C)cc3)C(C)C)ccc21 (stereo not drawn),inactive: -12.1%,
Cc1ccc(C)c(C(=O)CSc2nc3cc(C(=O)NC4CCCC4)ccc3c(=O)n2CC2CCCO2)c1 (stereo not drawn),inactive: -5.46%,

SMILES,"activity change, negative = inhibition",Potency
COCc1cc(C)n(CC(=O)Nc2cccc(C(C)=O)c2)c(=O)c1C#N,inactive: -0.476%,
Cc1ccc(-c2nc3cc(NC(=O)c4cc(Br)ccc4Cl)ccc3o2)cc1,inactive: 18.6%,
CCOc1ccccc1C(=O)N1CCCCC1CCN1CCOCC1 (stereo not drawn),inactive: 2.45%,
CC(C)CCNC(=O)c1ccc2c(c1)N(C)C(=O)c1ccccc1S2,inactive: -18%,
CC(C)c1nn2c(=O)cc(COC(=O)c3ccccc3Cl)nc2s1,inactive: 24.7%,
COc1ccc(N2CCN(Cc3nc(-c4ccc(C)cc4)no3)CC2)cc1,inactive: -24.3%,
CCOc1cc2[nH]c(=O)n(CCCCCC(=O)NC(C)CC)c(=O)c2cc1OCC (stereo not drawn),inactive: -7.07%,
CCC(Cc1ccccc1)NC(=O)Cn1ncc2c3ccccc3n(Cc3ccc(F)cc3)c2c1=O (stereo not drawn),inactive: -22.9%,
O=C(O)CCn1ccc2cc(S(=O)(=O)N3CCCCC3)ccc21,inactive: -30.1%,
O=C(NCc1ccccc1Cl)C1CCN(c2ncnc3c2nc2n3CCCCC2)CC1,inactive: -5.56%,
COc1ccc2nc3cc(Cl)ccc3c(Nc3cc(CN4CCCC4)c(O)c(CN4CCCC4)c3)c2n1,inactive: 8.81%,
COc1ccc(-c2csc(-c3c(N)c(C(=O)c4ccccc4)n4ccccc34)n2)cc1,inactive: 2.36%,
Cc1nnc(NC(=O)CSCc2cc(=O)c3ccc(C)c(C)c3[nH]2)s1,inactive: -2.99%,
Cc1ccc(-n2nc3c(N4CCC(C(=O)NCCC(C)C)CC4)nnc(C)c3c2C)cc1,inactive: -24.5%,
Cc1ccc2oc(=O)c3cc(C(=O)Nc4cccc(C#N)c4)sc3c2c1,inactive: -11.1%,
CCC(=O)N1c2ccccc2CC1C(=O)NCCc1ccc(Cl)cc1 (stereo not drawn),inactive: -10.9%,
O=C(Cn1nnnc1-c1ccccc1F)Nc1ccc(F)c(F)c1,inactive: -7.04%,
Cc1cc(C)cc(-n2ccnc2SCC(=O)Nc2ccc(C)c(Cl)c2)c1,inactive: -14.1%,
CCOc1ccccc1NC(=O)c1nnn(CC(=O)Nc2ccccc2CC)c1N,inactive: 9.18%,
COc1ccc(NC(=O)c2[nH]nc3c2CSc2ccccc2-3)c(OC)c1,inactive: 0.987%,
COc1ccc(-n2c3c(cc(-c4nc(-c5ccc(Cl)cc5)cs4)c2=O)C(=O)CC(C)(C)C3)cc1,inactive: -2.49%,
